{"source": "the supplement of paper PMC12582362", "note": "Where a name gives a salt, the structure may show the parent alone. In all, about 1,500 compounds went through this assay and about 30 (2%) showed activity.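 How the source made its calls: active = robust z-score below -2; a few such results were not called.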 The list shows a part of the results.", "data": [{"test_system": "optoTopBP1 Flp-In 293 T-REx (HEK293) cells", "assay": "light-induced TopBP1 condensate (nuclear foci) count, plate-normalised robust z-score vs non-control wells; higher = more TopBP1 condensates (negative = condensation inhibitor), active = hit call of the paper", "conditions": "10 µM; incubation time 2 h", "values": [{"smiles": "COc1cc2nc(N3CCN(C(=O)c4ccco4)CC3)nc(N)c2cc1OC", "note": "[Prazosin hydrochloride]", "light-induced TopBP1 condensate (z-score)": "inactive: -1.44"}, {"smiles": "CCCCS(=O)(=O)N[C@@H](Cc1ccc(OCCCCC2CCNCC2)cc1)C(=O)O", "note": "[Tirofiban hydrochloride]", "light-induced TopBP1 condensate (z-score)": "inactive: 0.237"}, {"smiles": "CCn1cc(C(=O)O)c(=O)c2cnc(N3CCNCC3)nc21", "note": "[Pipemidic acid]", "light-induced TopBP1 condensate (z-score)": "inactive: -0.521"}, {"smiles": "COc1nc(C)nc(Cl)c1NC1=NCCN1", "note": "[Moxonidine]", "light-induced TopBP1 condensate (z-score)": "inactive: 0.754"}, {"smiles": "Cc1ccc(S(=O)(=O)NC(=O)NN2CC3CCCC3C2)cc1", "note": "(centres undefined) [Gliclazide]", "light-induced TopBP1 condensate (z-score)": "inactive: -0.167"}, {"smiles": "CCC(C)C(C(=O)OCC[N+](C)(CC)CC)c1ccccc1", "note": "(centres undefined) [Valethamate bromide]", "light-induced TopBP1 condensate (z-score)": "inactive: -0.286"}, {"smiles": "CC(=O)N[C@@H](CC(=O)N[C@@H](CCC(=O)O)C(=O)O)C(=O)O", "note": "[Spaglumic acid]", "light-induced TopBP1 condensate (z-score)": "inactive: 1.44"}, {"smiles": "C#CCN(C)Cc1ccccc1", "note": "[Pargyline hydrochloride]", "light-induced TopBP1 condensate (z-score)": "inactive: 0.044"}, {"smiles": "COc1ccc2cc(CCC(C)=O)ccc2c1", "note": "[Nabumetone]", "light-induced TopBP1 condensate (z-score)": "inactive: -0.637"}, {"smiles": "C[C@H]1[C@@H](O)O[C@@H]2O[C@@]3(C)CC[C@H]4[C@H](C)CC[C@@H]1[C@@]24OO3", "note": "[Artenimol]", "light-induced TopBP1 condensate (z-score)": "inactive: 0.222"}, {"smiles": "CCN(CC)CCNC(=O)c1cc(S(C)(=O)=O)ccc1OC", "note": "[Tiapride hydrochloride]", "light-induced TopBP1 condensate (z-score)": "inactive: 0.628"}, {"smiles": "O=C(CCCN1CC=C(n2c(=O)[nH]c3ccccc32)CC1)c1ccc(F)cc1", "note": "[Droperidol]", "light-induced TopBP1 condensate (z-score)": "inactive: 0.975"}, {"smiles": "CC1(C)OC(=O)NC1=O", "note": "[Dimethadione]", "light-induced TopBP1 condensate (z-score)": "inactive: -0.197"}, {"smiles": "N=C(N)NCC1COC2(CCCCC2)O1", "note": "(centres undefined) [Guanadrel sulfate]", "light-induced TopBP1 condensate (z-score)": "inactive: 0.53"}, {"smiles": "Cn1nnnc1SCC1=C(C(=O)O)N2C(=O)[C@@H](NC(=O)[C@H](O)c3ccccc3)[C@H]2SC1", "note": "[Cefamandole sodium salt]", "light-induced TopBP1 condensate (z-score)": "inactive: 0.121"}, {"smiles": "CCC[C@H](N[C@@H](C)C(=O)N1[C@H](C(=O)O)C[C@@H]2CCCC[C@@H]21)C(=O)OCC", "note": "[Perindopril]", "light-induced TopBP1 condensate (z-score)": "inactive: 0.452"}, {"smiles": "Nc1ccc(C(=O)NCC(=O)O)cc1", "note": "[Aminohippuric acid]", "light-induced TopBP1 condensate (z-score)": "inactive: -0.961"}, {"smiles": "Nc1ccc(S(=O)(=O)c2ccc(N)cc2)cc1", "note": "[Dapsone]", "light-induced TopBP1 condensate (z-score)": "inactive: 2.21"}, {"smiles": "CN(C)CCc1c[nH]c2ccc(Cn3cncn3)cc12", "note": "[Rizatriptan benzoate]", "light-induced TopBP1 condensate (z-score)": "inactive: -0.77"}, {"smiles": "OCCN1CCN(CCCN2c3ccccc3Sc3ccc(Cl)cc32)CC1", "note": "[Perphenazine]", "light-induced TopBP1 condensate (z-score)": "inactive: -0.632"}, {"smiles": "C=C1C[C@H]2[C@@H]3C=C(C)C4=CC(=O)CC[C@]4(C)[C@H]3CC[C@]2(C)[C@@]1(OC(C)=O)C(C)=O", "note": "[Melengestrol acetate]", "light-induced TopBP1 condensate (z-score)": "inactive: -0.246"}, {"smiles": "CC(=O)Oc1cccc2c1C(=O)c1c(OC(C)=O)cc(C(=O)O)cc1C2=O", "note": "[Diacerein]", "light-induced TopBP1 condensate (z-score)": "inactive: -1.09"}, {"smiles": "CN1CCCCC1CCN1c2ccccc2Sc2ccc([S+](C)[O-])cc21", "note": "(centres undefined) [Mesoridazine besylate]", "light-induced TopBP1 condensate (z-score)": "inactive: 0.412"}, {"smiles": "NC(=O)N/N=C/c1ccc([N+](=O)[O-])o1", "note": "[Nitrofural]", "light-induced TopBP1 condensate (z-score)": "inactive: -0.288"}, {"smiles": "CN(C)CCC[C@@]1(c2ccc(F)cc2)OCc2cc(C#N)ccc21", "note": "[Escitalopram oxalate]", "light-induced TopBP1 condensate (z-score)": "inactive: 0.231"}, {"smiles": "CCCC(=O)Nc1ncnc2c1ncn2[C@@H]1O[C@@H]2COP(=O)(O)O[C@H]2[C@H]1OC(=O)CCC", "note": "[Bucladesine sodium salt]", "light-induced TopBP1 condensate (z-score)": "inactive: 1"}, {"smiles": "CN1CCCC(n2nc(Cc3ccc(Cl)cc3)c3ccccc3c2=O)CC1", "note": "(centres undefined) [Azelastine hydrochloride]", "light-induced TopBP1 condensate (z-score)": "inactive: -1.27"}, {"smiles": "CCN1CCN(C(=O)N[C@@H](C(=O)N[C@@H]2C(=O)N3[C@@H]2SC(C)(C)[C@@H]3C(=O)O)c2ccccc2)C(=O)C1=O", "note": "[Piperacillin sodium salt]", "light-induced TopBP1 condensate (z-score)": "inactive: 0.0263"}, {"smiles": "CO[C@@H]1[C@@H](OC(N)=O)[C@@H](O)[C@H](Oc2ccc3c(O)c(NC(=O)c4ccc(O)c(CC=C(C)C)c4)c(=O)oc3c2C)OC1(C)C", "note": "[Novobiocin sodium salt]", "light-induced TopBP1 condensate (z-score)": "inactive: 1.34"}, {"smiles": "COc1c2occc2c(OC)c2c(=O)cc(C)oc12", "note": "[Khellin]", "light-induced TopBP1 condensate (z-score)": "inactive: 1.99"}, {"smiles": "Nc1cc(C(Cl)=C(Cl)Cl)c(S(N)(=O)=O)cc1S(N)(=O)=O", "note": "[Clorsulon]", "light-induced TopBP1 condensate (z-score)": "inactive: -0.193"}, {"smiles": "CC(=O)c1cc2cccc(OCC(O)CNC(C)C)c2o1", "note": "(centres undefined) [Befunolol]", "light-induced TopBP1 condensate (z-score)": "inactive: -0.826"}, {"smiles": "CC[C@H](C)C(=O)O[C@H]1CCC=C2C=C[C@H](C)[C@H](CC[C@@H]3C[C@@H](O)CC(=O)O3)[C@H]21", "note": "[Mevastatin]", "light-induced TopBP1 condensate (z-score)": "inactive: -0.133"}, {"smiles": "CN1CCN(c2c(F)cc3c(=O)c(C(=O)O)cn(CCF)c3c2F)CC1", "note": "[Fleroxacin]", "light-induced TopBP1 condensate (z-score)": "inactive: -0.0757"}, {"smiles": "C[C@H](CCC(=O)O)[C@H]1CC[C@H]2[C@@H]3[C@H](O)C[C@@H]4C[C@H](O)CC[C@]4(C)[C@H]3CC[C@]12C", "note": "[Chenodiol]", "light-induced TopBP1 condensate (z-score)": "inactive: -0.27"}, {"smiles": "CC(=O)OCC(CCn1cnc2cnc(N)nc21)COC(C)=O", "note": "[Famciclovir]", "light-induced TopBP1 condensate (z-score)": "inactive: 0.424"}, {"smiles": "NNc1nncc2ccccc12", "note": "[Hydralazine hydrochloride]", "light-induced TopBP1 condensate (z-score)": "inactive: 1.01"}, {"smiles": "CN1CCN(CCCN2c3ccccc3Sc3ccc(Cl)cc32)CC1", "note": "[Prochlorperazine dimaleate]", "light-induced TopBP1 condensate (z-score)": "inactive: -0.188"}, {"smiles": "Cc1nc(=O)c2cc(CN(C)c3ccc(C(=O)N[C@@H](CCC(=O)O)C(=O)O)s3)ccc2[nH]1", "note": "[Raltitrexed]", "light-induced TopBP1 condensate (z-score)": "inactive: -0.968"}, {"smiles": "CC(/C=C1\\SC(=S)N(CC(=O)O)C1=O)=C\\c1ccccc1", "note": "[Epalrestat]", "light-induced TopBP1 condensate (z-score)": "inactive: -0.306"}, {"smiles": "O=c1oc2ccccc2c(O)c1Cc1c(O)c2ccccc2oc1=O", "note": "[Dicumarol]", "light-induced TopBP1 condensate (z-score)": "inactive: -0.011"}, {"smiles": "CC(C)NC[C@@H](O)COc1cccc2ccccc12", "note": "[(R)-Propranolol hydrochloride]", "light-induced TopBP1 condensate (z-score)": "inactive: 0.474"}, {"smiles": "CCN(CC)CCc1nc(-c2ccccc2)no1", "note": "[Oxalamine citrate salt]", "light-induced TopBP1 condensate (z-score)": "inactive: -0.151"}, {"smiles": "CNCC(O)c1ccc(OC(=O)C(C)(C)C)c(OC(=O)C(C)(C)C)c1", "note": "(centres undefined) [Dipivefrin hydrochloride]", "light-induced TopBP1 condensate (z-score)": "inactive: -1.55"}]}]}
